The list shows a part of the results. Single values of this set are uncertain. Values with irradiation are relative to irradiated vehicle.
Each compound was assayed on A549-Dual (assay: NF-kB reporter (SEAP) activity, viability-corrected, relative to vehicle (fold change vs vehicle); higher = more activation of STING-IRF / NF-kB immune response reporter). Settings: 10 µM; irradiation: none.
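Throughout, for NF-kB reporter (SEAP) activity, viability-corrected, relative to vehicle: viability correction based on the alamar blue assay, with concentrations leaving 10% survival or less dropped.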

Structure (SMILES)	NF-kB reporter
OCC1OC(OC2OC=CC3C(O)C4OC4(CO)C23)C(O)C(O)C1O (stereo unspecified) [Catalpol]	0.777
C#CC1(O)CCC2C3CCC4=Cc5oncc5CC4(C)C3CCC21C (stereo unspecified) [Danazol]	0.709
CC(=O)O.N=C(N)N/N=C/c1c(Cl)cccc1Cl [Guanabenz Acetate]	1.13
COS(=O)(=O)[O-].COc1cc(N)cn[n+]1-c1ccccc1 [Amezinium (methylsulfate)]	0.949
CC(C)NNC(=O)c1ccncc1 [Iproniazid]	0.895
CC(C)(Oc1ccc(CCNC(=O)c2ccc(Cl)cc2)cc1)C(=O)O [Bezafibrate]	0.687
NC(=O)NC1NC(=O)NC1=O (stereo unspecified) [Allantoin]	0.997

What follows are compounds tested on A549-Dual (assay: ISRE reporter (Lucia luciferase) activity, viability-corrected, relative to vehicle (fold change vs vehicle); higher = more activation of STING-IRF / NF-kB immune response reporter). Settings: 10 µM; irradiation: 8 Gy/4 fr.

Structure (SMILES)	ISRE reporter
CC(=O)NC1C(OC2C(C(=O)O)OC(OC3C4COC(O4)C(NS(=O)(=O)O)C3O)C(O)C2O)OC(CO)C(OC2CC(C(=O)O)C(OC3OC(COS(=O)(=O)O)C(OC4OC(C(=O)O)=CC(O)C4O)C(O)C3NC(C)=O)C(O)C2O)C1C (stereo unspecified) [Enoxaparin sodium]	0.821
COc1cc(O)c(C(=O)Nc2nc(C(=O)NCCN(C(C)C)C(C)C)cs2)cc1OC.Cl.O.O.O [Acotiamide hydrochloride]	1.06
CS(=O)(=O)c1ccc(C(O)C(CF)NC(=O)C(Cl)Cl)cc1 (stereo unspecified) [Florfenicol]	0.376
N=C(N)NCCCC(N)C(=O)O (racemic) [DL-Arginine]	1.41
CCCN1CC(C)C(O)C(C)(O)C(CC)OC(=O)C(C)C(OC2CC(C)(OC)C(O)C(C)O2)C(C)C(OC2OC(C)CC(N(C)C)C2O)C(C)(O)CC1C (stereo unspecified) [Gamithromycin]	0.73
CC(=O)OC(C)C[N+](C)(C)C.[Cl-] (stereo unspecified) [Methacholine chloride]	0.934
CC(C)(C)C(O)/C=C/c1ccc2c(c1)OCO2 (stereo unspecified) [Stiripentol]	1.03
[OH][Al]([OH])[OH] [Aluminium hydroxide]	1.47
COc1cc2c(cc1OC)-c1cc3ccc(OC)c(OC)c3c[n+]1CC2 [Palmatine]	0.732
Cl.c1ccc(CC2=NCCN2)cc1 [Tolazoline HCl]	0.663
C#CCNC1CCc2ccccc21.CS(=O)(=O)O (stereo unspecified) [Rasagiline Mesylate]	0.724
Cl.N=C(N/N=C/c1ccc(Cl)cc1)N/N=C/c1ccc(Cl)cc1 [Robenidine Hydrochoride]	0.795
CCC1OC(=O)C(C)C(OC2CC(C)(OC)C(O)C(C)O2)C(C)C(OC2OC(C)CC(N(C)C)C2O)C(C)(O)CC(C)C(=O)C(C)C(O)C1(C)O.N#CS (stereo unspecified) [Erythromycin thiocyanate]	0.717
Cl.OC(c1cc(C(F)(F)F)nc2c(C(F)(F)F)cccc12)C1CCCCN1 (stereo unspecified) [Mefloquine HCl]	0.684
OCC1OC(OC2(CO)OC(CO)C(O)C2O)C(O)C(O)C1O (stereo unspecified) [Inulin]	0.895
CC1c2cccc(O)c2C(=O)C2=C(O)C3(O)C(=O)C(C(N)=O)=C(O)C(N(C)C)C3C(O)C21 (stereo unspecified) [Doxycycline]	0.448
Oc1c(I)cc(Cl)c2cccnc12 [Clioquinol]	0.292
CCCCCC(O)/C=C/C1C(O)CC(O)C1C/C=C\CCCC(=O)O.NC(CO)(CO)CO (stereo unspecified) [Dinoprost tromethamine]	1
COc1ccccc1O [Guaiacol]	0.941
CS(=O)(=O)CCNCc1ccc(-c2ccc3ncnc(Nc4ccc(OCc5cccc(F)c5)c(Cl)c4)c3c2)o1 [Lapatinib]	0.811

Structure (SMILES)	ISRE reporter
CC(=O)Oc1ccc(C(=C2CCCCC2)c2ccc(OC(C)=O)cc2)cc1 [Cyclofenil]	0.781
COc1cc(C=O)ccc1O [Vanillin]	0.844
Cc1ccsc1C(=CCCN1CCCC(C(=O)O)C1)c1sccc1C (stereo unspecified) [Tiagabine]	0.794
COC(=O)NC(C(=O)NC(Cc1ccccc1)C(O)CN(Cc1ccc(-c2ccccn2)cc1)NC(=O)C(NC(=O)OC)C(C)(C)C)C(C)(C)C (stereo unspecified) [Atazanavir]	0.791
CCOC(=O)C(C)(C)Oc1ccc(Cl)cc1 [Clofibrate]	0.714
Cl.Cl.OCCOCCN1CCN(C(c2ccccc2)c2ccc(Cl)cc2)CC1 (stereo unspecified) [Hydroxyzine 2HCl]	1.07
CC1(C)SC2C(NC(=O)C(N)c3ccccc3)C(=O)N2C1C(=O)[O-].[Na+] (stereo unspecified) [Ampicillin sodium]	1.11
Cn1c(=O)c2c(ncn2CC(O)CO)n(C)c1=O (stereo unspecified) [Dyphylline]	0.974
CCn1cc(C(=O)O)c(=O)c2ccc(C)nc21 [Nalidixic acid]	0.806
Cl.NC(CO)C(=O)NNCc1ccc(O)c(O)c1O (stereo unspecified) [Benserazide HCl]	0.83
CCCCCCCCCCCCCC(=O)O [Myristic Acid]	0.987
O=C([O-])CCSCC1OC2OC3C(CSCCC(=O)[O-])OC(OC4C(CSCCC(=O)[O-])OC(OC5C(CSCCC(=O)[O-])OC(OC6C(CSCCC(=O)[O-])OC(OC7C(CSCCC(=O)[O-])OC(OC8C(CSCCC(=O)[O-])OC(OC9C(CSCCC(=O)[O-])OC(OC1C(O)C2O)C(O)C9O)C(O)C8O)C(O)C7O)C(O)C6O)C(O)C5O)C(O)C4O)C(O)C3O.[Na+].[Na+].[Na+].[Na+].[Na+].[Na+].[Na+].[Na+] (stereo unspecified) [Sugammadex (sodium)]	0.322
OCC1OC(OC2OC=CC3C(O)C4OC4(CO)C23)C(O)C(O)C1O (stereo unspecified) [Catalpol]	0.919
C#CC1(O)CCC2C3CCC4=Cc5oncc5CC4(C)C3CCC21C (stereo unspecified) [Danazol]	0.797
CC(=O)O.N=C(N)N/N=C/c1c(Cl)cccc1Cl [Guanabenz Acetate]	0.81
COS(=O)(=O)[O-].COc1cc(N)cn[n+]1-c1ccccc1 [Amezinium (methylsulfate)]	0.347
CC(C)NNC(=O)c1ccncc1 [Iproniazid]	0.59
CC(C)(Oc1ccc(CCNC(=O)c2ccc(Cl)cc2)cc1)C(=O)O [Bezafibrate]	0.982
NC(=O)NC1NC(=O)NC1=O (stereo unspecified) [Allantoin]	0.766

— the supplement of paper PMC9174493
